# PubChem BioAssay AID1259400 (National Center for Advancing Translational Sciences (NCATS), 2018)
# In all, about 350,000 compounds went through this assay and about 2,100 (0.6%) were called active. The shares of active, inactive and inconclusive entries below differ from those in the screen.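 How the source made its calls: active means activity change of -60% or lower, but not beyond a set lower limit; inconclusive means change between -60% and -40%, or beyond the set limit; inactive means change above -40%.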 Some compounds were tested as several samples or in several runs, with calls that do not always agree.
# Biological target: Relaxin receptor 1 (Homo sapiens) (UniProt Q9HBX9)
# Experiment: qHTS Assay for Antagonists of the Relaxin Receptor RXFP1
# Conditions: HEK293-RXFP1, relaxin-stimulated cAMP HTRF, 30 min; at 57.5 µM; stronger effect = lower value
# On the % scale 0 is the no-effect control and ±100 the full control effect.
# Chain of UniProt Q9HBX9 (Q9HBX9 whole entry, looked up): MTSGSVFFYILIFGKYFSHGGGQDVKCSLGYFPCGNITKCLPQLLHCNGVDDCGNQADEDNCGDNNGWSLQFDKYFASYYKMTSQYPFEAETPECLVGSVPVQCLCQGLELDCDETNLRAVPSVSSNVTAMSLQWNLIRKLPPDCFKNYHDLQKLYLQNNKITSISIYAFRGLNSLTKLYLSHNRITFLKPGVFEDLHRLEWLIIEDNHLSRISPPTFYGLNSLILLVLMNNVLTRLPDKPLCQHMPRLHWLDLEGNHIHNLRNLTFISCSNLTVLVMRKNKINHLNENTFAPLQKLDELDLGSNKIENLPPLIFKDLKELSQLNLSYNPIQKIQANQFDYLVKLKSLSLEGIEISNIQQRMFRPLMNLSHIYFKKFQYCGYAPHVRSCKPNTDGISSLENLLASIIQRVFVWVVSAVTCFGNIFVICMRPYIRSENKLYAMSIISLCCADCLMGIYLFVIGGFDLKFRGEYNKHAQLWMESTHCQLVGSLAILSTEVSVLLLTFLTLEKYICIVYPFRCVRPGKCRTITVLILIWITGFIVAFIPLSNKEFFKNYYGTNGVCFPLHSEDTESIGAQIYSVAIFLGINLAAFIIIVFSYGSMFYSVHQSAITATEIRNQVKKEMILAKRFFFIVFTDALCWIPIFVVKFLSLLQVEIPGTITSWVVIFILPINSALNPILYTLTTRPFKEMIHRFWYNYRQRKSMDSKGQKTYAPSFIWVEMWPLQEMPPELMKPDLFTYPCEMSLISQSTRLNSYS
row,SMILES,"activity change, negative = inhibition"
1,CC(C)(C)C(=O)N1CCN(C(c2ccccc2)c2ccccc2)CC1,inconclusive: -45.4%
2,Cc1ccc(NC(=O)c2cc(-c3cccc(O)c3)on2)cc1C,inconclusive: -40.6%
3,O=c1oc2c(-c3ccc([N+](=O)[O-])cc3)cc(O)cc2s1,inconclusive: -50.5%
4,Cc1ccc(NC(=O)c2cnc(N3CCCCC3)c3ccccc23)cc1Cl,inconclusive: -40.4%
5,CCCC(=O)C1=C(c2ccc(C)cc2)N(C(=O)CCC)n2cnnc2S1,inconclusive: -52.4%
6,COc1cc(C2Nc3c(F)cccc3C3C=CCC32)cc(Br)c1OC (centres undefined),active: -64.6%
7,O=S(=O)(NNc1ncc(C(F)(F)F)cc1Cl)c1ccccc1,inconclusive: -40%
8,OC(c1ccccc1)(C1CCCCC1)C(CN1CCOCC1)c1ccccc1 (centres undefined),inactive: -18.1%
9,CCc1nnc(NC(=O)CSc2n[nH]c(-c3ccccc3O)n2)s1,inconclusive: -55.1%
10,CC(=O)c1coc2c1cc(O)c1ccccc12,inactive: -0.0598%
11,O=C(CCCc1nc(-c2ccccc2)no1)Nc1cc(C(F)(F)F)cc(C(F)(F)F)c1,inconclusive: -55.8%
12,Cc1nnc(NC(=O)CC(C)c2ccccc2)s1 (centres undefined),inactive: 2.25%
13,O=C(O)c1ccccc1C(=O)c1ccc(N2CCOCC2)c([N+](=O)[O-])c1,active: -69.1%
14,Cc1ccc(Sc2nc3ccc(C)cn3c(=O)c2/C=N/O)cc1,inconclusive: -42.2%
15,N=c1oc2c3c4c(cc2cc1C(=O)Nc1ccccc1)CCCN4CCC3,inconclusive: -47.6%
16,COCc1ccc(CN2CCC(C(=O)Nc3cccc(-c4cccc(Cl)c4)c3)CC2)o1,inactive: -18.7%
17,COc1ccc(C(=O)Oc2ccc(Br)cc2C(=S)N2CCOCC2)cc1,active: -67.2%
18,CCOC(=O)c1cc(-c2ccccc2)n(CCC(=O)NCCc2ccccc2)c1C,inconclusive: -53.1%
19,O=C(Cc1ccc(F)cc1)N1CCN(c2ccc([N+](=O)[O-])cc2)CC1,inactive: -0.481%
20,Cc1ccc2[nH]c(=O)c(CN(Cc3ccccc3)C(=S)NCCCN(C)C)cc2c1,inconclusive: -43.8%
21,CCOC(=O)N1CCN(S(=O)(=O)c2ccc(C(=O)N(CCCN(C)C)c3nc4c(C)c(C)ccc4s3)cc2)CC1,inconclusive: -40%
22,CCOc1ccc(N2CC(C)Cn3c2nc2c3c(=O)n(Cc3c(F)cccc3Cl)c(=O)n2C)cc1 (centres undefined),inconclusive: -40.7%
23,Cc1noc2ncnc(Oc3ccccc3)c12,inactive: -6.08%

row,SMILES,"activity change, negative = inhibition"
1,CC1CCCN(C(=S)SCC(=O)c2cc(Br)cc(Br)c2O)C1 (centres undefined),inconclusive: -43.2%
2,CCc1ccc(OCC(=O)NNC(=O)c2cc(S(=O)(=O)N(C)C)ccc2N2CCCC2)cc1,active: -114%
3,CCN(CC)c1ccc(/C=N/Nc2nc3ccccc3[nH]2)cc1,inactive: -1.2%
4,O=C1C(Cl)=C(NCCCO)C(=O)c2ccccc21,inactive: 7.86%
5,CCOc1ccc2[nH]c3c(NCCc4ccc(OC)c(OC)c4)ncnc3c2c1,inconclusive: -53.9%
6,Cn1cccc1/C=N/n1c(-c2ccc(C(C)(C)C)cc2)n[nH]c1=S,active: -64.3%
7,O=C(COc1ccc([N+](=O)[O-])cc1)N1CCC(c2nc3ccccc3s2)CC1,inconclusive: -42.4%
8,Cc1ccc(/C=N/NC(=O)c2ccc(N(C)S(=O)(=O)c3ccccc3)cc2)cc1,inconclusive: -41.5%
9,CC(C)(CC(=O)OCC(=O)Nc1ccccc1F)CC1=NS(=O)(=O)c2ccccc2N1,-143%
10,CCCc1ccc(Oc2cn[nH]c2-c2ccc(O)c(C)c2O)cc1,inconclusive: -48.5%
11,COc1ccc(C2=Nc3ccc(OC(F)(F)F)cc3NC(c3cccnc3)=N2)cc1,inactive: -9.45%
12,Cc1ccc(Cn2cccc(NC(=O)CCC3CCCC3)c2=O)cc1,inconclusive: -43.9%
13,CCC(CC)C(=O)Nc1ccc(C)cc1O,inconclusive: -40.3%
14,Cc1cc(C(=O)NCc2cccs2)cs1,inactive: -9.21%
15,Cc1ccc(CN(Cc2ccco2)C(=O)COc2cccc(C)c2C)o1,active: -96.1%
16,CCCCCCCCC/C(=N\O)c1ccccn1,active: -69.3%
17,O=C(c1cccc(Cl)c1)N1c2ncnn2C2(CCCCC2)[C@@H]2CCCC[C@@H]21,active: -61.3%
18,CCCc1cc(=O)n2[nH]cc(-c3ccc(Cl)cc3)c2n1,inconclusive: -46.8%
19,CCN(CC)c1ccc(C=Nc2ccc(N(C)C)cc2)c(O)c1,inconclusive: -59.5%
20,CC1CCC(n2c(=S)[nH]c3ccccc3c2=O)CC1 (centres undefined),inconclusive: -55.6%
21,CN(c1ccccc1)c1ccc(/C=C/[N+](=O)[O-])cc1,active: -108%
22,CN1C(=O)CC(N2CCC(c3nc4ccccc4s3)CC2)C1=O (centres undefined),inactive: 6.21%
23,Cc1cc(C)c2nc(N3C(=O)C(O)=C(C(=O)c4ccco4)C3c3cccc(O)c3)sc2c1 (centres undefined),inactive: 14.3%

row,SMILES,"activity change, negative = inhibition"
1,COc1ccc(OC)c2c1C(=O)c1ccccc1C2=O,inactive: 1.48%
2,CCOc1cc(/C=N/NC(=O)c2ccccn2)ccc1OC(=O)c1ccc(F)cc1,active: -93.3%
3,COCc1ccc(O)c2ncccc12,inconclusive: -47%
4,COc1ccc(CC2=CC(=O)c3ccccc3C2=O)cc1,inconclusive: -47.7%
5,COC(=O)C(Cc1csc2ccc(Cl)cc12)NC(=O)c1ccc(Cl)cc1 (centres undefined),active: -67.8%
6,CCn1c(SC(C)C)nnc1-c1cc(-c2ccccc2)sc1N,inconclusive: -58.9%
7,COc1ccc(OC)c(NC(=O)COC(=O)CNC(=O)c2ccc(OC)c(OC)c2)c1,inactive: -13.7%
8,CCN(CC)CC(=O)N1c2ccccc2Sc2ccc(Cl)cc21,inconclusive: -43.7%
9,OCCN1CCN(C(=S)Nc2cccc(C(F)(F)F)c2)CC1,active: -68.5%
10,CCOC(=O)C1CCN(S(=O)(=O)c2cc(-c3onc(C)c3C)ccc2OC)CC1,inactive: -5.3%
11,CC(C)Oc1cccc(-c2cc(C(=O)NN3CCOCC3)c3ccccc3n2)c1,inactive: -11.8%
12,O=C(CN1CCN(Cc2ccccc2)CC1)NCc1ccccc1Cl,inconclusive: -51.7%
13,Cc1ccc(S(=O)(=O)Oc2ccc(/C=C(/NC(=O)c3ccccc3)C(=O)NCCC(=O)O)cc2)cc1,inconclusive: -51.5%
14,CCc1ccc2[nH]c3nc(N/N=C/c4ccc(O)cc4O)nnc3c2c1,inconclusive: -45.7%
15,COC(=O)Cc1[nH]nc2c1C1(CCSCC1)C(C#N)=C(N)O2,inactive: 22.7%
16,Cc1[nH]c2ccc(C(=O)NCCCN3CCN(C)CC3)cc2c1C,inconclusive: -51.8%
17,CC(=O)Nc1cccc(OCC(=O)/C=C2\N(C)c3ccccc3C2(C)C)c1,inconclusive: -51.7%
18,O=C(CCc1n[nH]c(=O)[nH]c1=O)Nc1cccc([N+](=O)[O-])c1,inconclusive: -43.6%
19,COc1ccc(Cn2nnnc2C(CC(C)C)N2CCN(c3ccccc3)CC2)cc1 (centres undefined),inactive: -15.9%
20,CC(C)CNC(=O)COc1cccc(C(=O)NCc2ccccc2)c1,inconclusive: -44.3%
21,Cc1ccc([C@H]2Nc3ccc(S(=O)(=O)Nc4cccc(Cl)c4C)cc3[C@H]3C=CC[C@H]32)cc1,active: -62%
22,COc1ccc(C(=O)c2ccc(N3CCOCC3)c([N+](=O)[O-])c2)cc1,inconclusive: -54.7%
23,O=C(/C=C/c1ccccc1Cl)c1cccnc1,active: -72%

row,SMILES,"activity change, negative = inhibition"
1,CC(C)NC(=O)c1ccc2c(=O)n(CC3CCCO3)c(=S)[nH]c2c1 (centres undefined),inconclusive: -44.4%
2,COC(=O)c1ccc(NCc2cc(O)ccc2O)cc1O,inconclusive: -50.9%
3,Cc1nnc(NCCc2ccccc2)[nH]c1=O,inactive: 11.3%
4,CCOC(=O)C1=C(N)Oc2ccc3ccccc3c2C1c1ccc(O)c(OC)c1 (centres undefined),inconclusive: -56.9%
5,Cc1ccc(CN2CCN(/N=C/c3ccccc3)CC2)cc1,inconclusive: -40%
6,Cc1ccc(Cl)cc1NC(=O)C[n+]1ccc(Cc2ccc([N+](=O)[O-])cc2)cc1,inactive: 4.47%
7,Cc1cccc(CS(=O)(=O)c2ncc(Cl)c(C(=O)Nc3ccc(F)cc3)n2)c1,active: -95.9%
8,CC1=CC(=O)C=C(C)C1=NOS(=O)(=O)c1ccccc1,active: -84.2%
9,CCCCCCCCCCn1c2c(c(=N)c3c1CCC3)CCC2,active: -69.4%
10,CC(C)c1nnc(NC(=O)c2nc(S(=O)(=O)Cc3ccc(F)cc3)ncc2Cl)s1,inconclusive: -50.6%
11,COC(=O)C(Nc1ccccc1Cl)(c1cc(C)c(O)c(C)c1)C(F)(F)F (centres undefined),active: -64.1%
12,C/C(=N\NC(=O)C1(C)CC1(Br)Br)c1cccc(NC(=O)c2ccc(C)o2)c1 (centres undefined),inconclusive: -42.2%
13,O=C(CSc1ccc([N+](=O)[O-])cn1)Nc1ccc(N2CCOCC2)cc1,active: -66.8%
14,Cc1ccc2oc(-c3cc(NC(=O)c4ncn[nH]4)ccc3O)nc2c1,inconclusive: -43.7%
15,CC(NC(=O)CN(c1cccc(C(F)(F)F)c1)S(=O)(=O)c1ccc(Cl)c([N+](=O)[O-])c1)c1ccccc1 (centres undefined),active: -81.7%
16,O=C(/C=C/c1ccccc1)COC(=O)c1ccccc1,inconclusive: -47.9%
17,CN(C)CCNc1ncnc2c1sc1nc(N3CCCC3)c3c(c12)CC(C)(C)OC3,inconclusive: -40.2%
18,Cc1cc(C)c(OCC(=O)N(Cc2ccc(N(C)C)cc2)C2CCS(=O)(=O)C2)c(C)c1 (centres undefined),inconclusive: -51.3%
19,Cc1cccc(NC(=O)Cn2cccc2)c1,inactive: -9.11%
20,O=C(Nn1cnnc1)c1ccc([N+](=O)[O-])cc1,inconclusive: -54.8%
